# Reference: article PMC10726135
# This is one part of the list. At the low end of the ranking the order means little. Measured with an extract: partners may take part in the binding.
# Target: T1, HNF4alpha2 (COS-7 nuclear extract) (UniProt P41235)
# T1 sequence: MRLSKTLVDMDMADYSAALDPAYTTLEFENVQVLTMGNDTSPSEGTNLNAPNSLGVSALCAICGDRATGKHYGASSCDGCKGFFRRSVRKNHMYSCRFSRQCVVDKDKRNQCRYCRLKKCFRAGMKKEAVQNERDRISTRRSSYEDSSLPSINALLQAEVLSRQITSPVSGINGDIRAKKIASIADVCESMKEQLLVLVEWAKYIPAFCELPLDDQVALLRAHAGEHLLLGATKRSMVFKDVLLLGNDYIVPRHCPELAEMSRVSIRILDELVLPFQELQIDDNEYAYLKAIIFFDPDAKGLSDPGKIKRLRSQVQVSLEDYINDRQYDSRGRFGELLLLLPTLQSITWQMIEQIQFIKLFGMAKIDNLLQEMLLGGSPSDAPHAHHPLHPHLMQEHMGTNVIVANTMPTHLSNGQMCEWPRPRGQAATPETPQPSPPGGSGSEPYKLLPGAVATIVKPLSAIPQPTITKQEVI
# Assay: protein-binding microarray
# Conditions: COS-7 nuclear extract on double-stranded Agilent 4x180k PBM; binding buffer, salt, pH and temperature not given; high values mean tight binding; double strand, one strand shown; sequences stand for … in …GCCTAGGGAGATTAGAGTATCGGTCGA
row,Sequence,binding signal (log2 normalized intensity)
1,ACCTCAGAGAGCCGGAAACTCCACCTTCAG,-1.13
2,TGTGATCTACTCCCTGTTCTTACACCTGCT,-0.854
3,CCTGCCAAAGTTATCAAGTTGCTTAAATTC,0.931
4,TCCTAGAGTCCCTATTTGCTTGTGAATGAA,0.734
5,AATAAAATCTGGCAGCTTAAAAATGTTGAC,-0.633
6,CTGCTTGTGAGACCGGTTCCGCGGTCCGCA,-1.13
7,CCAGGCCTCCAGCTCTTTTGAACCCAAGGC,1.93
8,TCGAGGCCAGGGATTAAAGAATTCGTCCAG,-1.09
9,GTATTGCAAGTATTTCACCCCAGAGGCTAA,2.18
10,TGAGTTCTTATCTAGGTAAGTATAGTGGGA,1.51
11,TTAGATCAGAGGTCTAATTCCCAAGGGTAT,-0.435
12,CTTCTGTTTAAACTGATAACCTTGCCCAAC,-0.676
13,CTCAAGAAAGGATCTCACCCAAACCATCCC,1.73
14,CAGAAATGCCGCTAATGTATTTCGGGGCAC,1.4
15,GCATACAGGGTCCAAAGGTGTCAAGAACAT,3.15
16,TCTGGCATAGGAACAAAGGTTGGTGTGAAC,2.03
17,TAAGCTCATGCTTTCATCTCCCCAACACTT,3.66
18,TTAGGCCTCGGGAGTCTGGCTGCCCTGGGG,-0.965
19,GTCCTACAAATGATCAAAGGTTGGTCTTAG,2.44
20,AGCCATTAGGCTGATGCCCTTTGGATTTAG,3.77
21,TGTGTAGACATCACCTGCTCATTGACCCTT,5.18
22,GTGTGAGGTCCAAGCAGATGCTTTGAAGTG,0.603
23,TTTTGATCAAGGAGGACTTTGGAATGGCAG,3.81
24,GATCCCGGGAGGGAGAGAAGGACATCTATC,-1.13
25,CCTGGTCACTATTGACATTTGGGGTCAGAT,3.47

row,Sequence,binding signal (log2 normalized intensity)
1,TGGAAAGGTGAATGTACAAAGGTCAACGGC,5.6
2,CGTTAACATCAGCTGAGCAGAGAGGACCCT,1
3,ACAGACCTTTGTATATTCCCTTTGTATGGC,2.17
4,AGGAGGACATACTCCTACCACCAAAGAAAA,-1.01
5,GTATACTGACTAGGACAGAGCAGATGAAAG,-1.17
6,AAACACTGAACCTTGTCCCACTCTTGGGTC,1.64
7,ACAGTTGCTGTCTAGAAAGATTGCAGCAAG,-0.618
8,AGGCTGAGGTTTTCATCCCAGGGCTGGGGA,-0.657
9,TCATTTCCCCATTCCTAAGTTCCAAAGGCC,2.88
10,GGGTTAAAGTCTACAACCAGAACTTCTTAT,1.7
11,ACTCTATGTTAGGCTGGAAAACTGGGCTGT,0.95
12,GCTGTGTCCCACAGGGAAAGTATGGGTCAG,1.12
13,AACCCCTTTTCAATTCCTTATCTCGTTCTG,0.489
14,CCCTGCATCCACATGGGCGTCACCAACCAG,2.18
15,GCCTTTAATCAACTGCAGGAGTCGGGAGGT,0.442
16,CAGTAACAGGGAGTCTGTTGCAAGCAATGG,0.619
17,ATGCTATCTCCCAGTTCTTTTGACCTTTGC,7.68
18,CTATGTCAATAGAGCATGAGAACTTCTTCC,-0.566
19,CAGGTGAGCCCTACTCAGGTTAATCTCAAA,-0.286
20,ATGCACGTGCTCCAGGAGGGGAGGAGGGTC,2.53
21,AGCTGTGAACTGACTGGGGTTAACGTCCAA,2.52
22,ATCCCAGTTACTCAGCGAATACCAAATTCC,-0.789
23,TGGGGATGCTCAAAGTACACTTGGAGAAAA,0.91
24,CAACCTGCTCTTCTCTAAAGTCTGCTATCT,0.611
25,TCACCCTGGTGCTGCTACTTTAGCTGCCAG,-1.09

row,Sequence,binding signal (log2 normalized intensity)
1,CCTATTATTTTATAGAAAAGGAAAGTGAGG,1.42
2,TCCAAAGGTGTCAAGAACATAGCCCTCTAC,-1.39
3,GCCCACTTTCCTGGGCCGGGGTAGCGCTCT,-0.957
4,ACATCCTCTCAGGTCAAAGTTTGCCTTGAC,2.64
5,TGTGATGTGAAGAGTGTGGACTTTCACCTC,8.12
6,CTTTGACCTCAGAGAGCCGGAAACTCCACC,-1.05
7,AACATAACAGCAACAACACAGATCATATCA,-1.01
8,GGACGTCCCCGGGCGGGATGGGGTCACGAG,2.13
9,AGATTTGACCTACGGACCATGGATCGCCAA,1.83
10,CTCAAGCCAGACTGGTTTTTCTTGGGTGTA,1.68
11,CTGATAAAACAGCATGCGGTAAAGAAGCCA,-1.07
12,AGCCTAGTAAAAGGTAGATACTATAATTAG,-1.01
13,CTATCTTTGTAAGTACATTAATATACTGTG,1.97
14,GCATGGCTCAGTCCAAGTCCAAAGGTCTGA,5.39
15,TTAAAGCATATTTATTCAGGCCCACTGCAG,-1.1
16,CTTATCAGCAAGCATTAATCCCTGAGCCTG,-1.09
17,GCCAAAAGGTGCTACCACGAGAGTAGAGAG,-1.15
18,CAGACAGGCATGACAGAGTGTCCTGCCCCC,4.92
19,CAAACACAAAAAGCGGACAAACCAGTCCCA,-1.19
20,CTTTGAGATTTGCATTCATGATCTTAGATA,1.24
21,AACTTCGGGAATCTGACCTTTGGGACATTC,5.61
22,TGCAACATTAAAACAACCCAGAGAATGCTA,-0.716
23,CATGTTAATTTAAATAACAAGGATAGCGTC,-0.878
24,TCCCTAAGATTTATCCCAAATGTTTGCACT,1.71
25,TGAGTGTGTTTCTTGTTTCAGAGTAAATAC,1.45

row,Sequence,binding signal (log2 normalized intensity)
1,GAGATTTCAGCCGCTTTGAGGTCAATGGTA,2.22
2,ATATTTGTCTTCCTATCTCCTTACTCTTTG,0.837
3,TCCCTGGGTACAACTTTATCTAAGGGTTTC,0.61
4,GACAAAATGCCCAGGATTCCTTTTTCACTG,-1.13
5,AAGATTAGCTCACAGGAAAGGAGACTAAAG,-1.2
6,ATGAGAACTTCTTCCAATGAAAGGTTAACC,1.48
7,ATCTGAATGTATGGGCTATTTATGACGGTG,1.67
8,CCCGTGTCTCCCTACCTCTGCACAGCTCCA,-1.09
9,TTCCTGTAAATAATTAAGACCAAACTGCTG,-1.01
10,GACCCTCTGCCCCCTACACAGAGGAGCGAC,3.79
11,GTGTTTCTTGTTTCAGAGTAAATACGAACC,1.33
12,GGGATCCGGCCTTCCCGGGTGGACGTCCCC,0.652
13,CTAGATGGCTGTGACTACTTCCGGACATGG,0.55
14,TGGCACTGAAGAATGTCTAAATCTGAAGGA,-0.884
15,AAGTCTTAGTTTCCTTATCTGTAAAATGGA,1.67
16,TTCCCGGCCTGGCCACTCCGTTTGCTATGG,-1.07
17,TGGCATGCAGCAGGGGAATGGAGACACACC,-0.628
18,CACAAGCAATGGCTGGGTCTAAGGGCAAGT,0.463
19,TCTGTCTTCGGGCGGCGGCCTCTGGGAAAT,0.0959
20,AGTAATGTGATTTAATTCTGAGTTCCAATA,0.93
21,TGCCCCAGTCCTTCAGTCCTTCCCCCGCCA,5.41
22,ATTGGACTCTCTCATTCTGATATGCACTGT,1.63
23,CCAGTAGAGAAACAAATCTGCTTTCTACCC,-1.29
24,TGACTACCAGGTTCTGTACTTTGGAACCTG,6.78
25,AGCCTGACCATCACCACTTCAAGCTTGGTA,-1.11

row,Sequence,binding signal (log2 normalized intensity)
1,TATTAATGAGGCAAAGGTCAGGAGTTCCAT,3.05
2,GAAGTGATCCTTATCAGTGTGAGCTACAAG,0.52
3,TGAAAAAGGGTTGTGCAAACTTCAGCAGAA,-1.12
4,CCAGAATAGCCTCTGCAACTCAGAGACAGG,-1.17
5,TTCACCCCATTTTGTCCCTCCCTGCAGCTG,4.07
6,AATAGCTGAACTATTTAAGGCCTTTGAAGT,-0.502
7,ACCAGAGACCTTTGTTCACTTGTTTATCTG,2.35
8,AGGTCCCCAAGAGCCTTATCACATTACAGG,-0.373
9,GGGCTAAACATCAAGACAGGTGAGAGAGCT,-0.956
10,GATAGGAGATAAGGGGGTCAGTTCAAAAGA,0.291
11,CGCTTGTCTTACGGAAGAATGGAATTCCAG,1.28
12,AACACACAAGGCCCACTCCTCCCTCAGGGA,-1.1
13,CTATGGGAAAACAGGCTCAGCAAAGTCAGG,-1.13
14,AATATCGCTTGTCTTACGGAAGAATGGAAT,1.04
15,TTCAGGAATGCACCCTTTTGACCACACAGC,1.43
16,TGTTGGGATTAAGGAGAAGGCTCCCAAGGT,-1.22
17,CATCTGCCACTCATAGAACTGTCGCAGAAA,-1.18
18,TTCTTTTTTTCTTTTTTTCCCCCTCACTGA,4.25
19,TCTTGCCCTTTGGTCTGGAACACAGAGGGA,1.91
20,ATGGGGCCAGATTGAGAAACACATTCTTAG,-0.841
21,GCCAGCAAGGACTTTGAAGGCCCCAATTGC,-0.606
22,AAGACCAAACTGCTGAAGATAAGACTTCCT,-0.997
23,GTTTGTCAAGCTCAATGCAACCAGTTGGTG,-1.16
24,ATCAAAGGTCACTTTACAGATAAAGAAACC,2.34
25,ACAGAGTAAAGCCACTGCCTAGATAAAAGG,-1.17

row,Sequence,binding signal (log2 normalized intensity)
1,CTTTGCCCAACCCTCTCCCACTCCCCTCCT,4.96
2,AAGGGTTCAGGGCAGAAGAGGTTATCACAG,-0.326
3,ATGATATGGTCAGTGTTGATAAGAAAGCTG,0.0354
4,AAGGCTGCTGCCTGAAAGGCCAAGCCAGTT,-1.04
5,GGAATCTGAACTTTTGGCTCCCTGGGGTTA,1.68
6,CCTCCCGGAGGACCCGACCGGAGAGGGCGA,-1.29
7,ATAAGGAGGGTAACAATGCTGATGGGGACC,-1.14
8,GGAAAAGTAACACAGTAAGAGACTTCACCA,-1.19
9,CCCTTCCTGCTTCCAGGCTTGTACCTTGAC,2.69
10,CCCTAGTGACTCTAGGAACCTTTCTCCATA,-0.94
11,ATAGGCGAGGACGCAGTCCCGCGTGGCCTT,-1.09
12,TGTCAGCCCAAGATAACCTCCCCTCTGACC,3.22
13,ATGTTAATGATTACTAGAGATGTCCTGAAA,-0.0943
14,CAAGAAAGACCCAAGGCGTATGAAGCTTTG,-1.15
15,GGGTGGACTTTGGCTTTTCCAAAGGATCCC,4.12
16,AATAGATCTGGTCTTACTGATGGGCAAAGT,1.75
17,TTAAAAGCCCAACACGGGCGAAAAAGACGC,-1.1
18,AACATTCTATTCTATCTGTATTCTGAAGCC,0.518
19,ATGCAAAGCCCTGGCTGACCTTTAGCCTGG,6.54
20,GGGCCCCTTCCTGGGGGAGTTTCCTGCCTG,-1.11
